About 200 (0.44%) of roughly 45,000 compounds were called active. Another 7% or so got no clear call; they are omitted. Calls come from the whole dose curve; as a rule, active = well fitted activation curve with a large enough effect; inconclusive = small, poorly fitted or top-dose-only effect; inactive = no such curve, though single readings can be large or run the other way. The list shows a part of the results.
Assay: qHTS of TDP-43 Inhibitors: NCGC Sytravon Library Screen; note: 0% is about no effect; nearly all actives have a fitted effect of over 55% in size
Details: yeast TDP-43 toxicity rescue, BacTiter-Glo growth, 24 h; series mostly up to 46.1 µM; growth rescue (activation): at the top concentration
Procedure, shortened: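 TDP-43-expressing yeast, pregrown in raffinose, seeded at OD600 0.02 in galactose medium with compound for 24 hr at 30 deg C. Growth read by BacTiter-Glo luminescence, so rescue of toxicity appears as activation.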

Row | Structure (SMILES) | growth rescue (activation)
1 | COC(CNC(=O)CSCc1nc(-c2ccc(SC)cc2)oc1C)OC | inactive: 8.09%
2 | COc1ccc(N/C(=N/c2nc(C)cc(C)n2)NC(=O)c2ccccc2)cc1 | inactive: 13.1%
3 | O=C(OCC(=O)N1CCOCC1)c1ccccc1Br | inactive: 19.8%
4 | CCN(CC)C(=O)Cn1cnc2sc(C(=O)NCCCN3CCOCC3)c(C)c2c1=O | inactive: 4.26%
5 | Cc1ccc(/C(N)=N/OC(=O)Cc2ccccc2)cc1 | inactive: 46.3%
6 | CC1(C)NC(=O)N(CC(O)CN(c2cccc([N+](=O)[O-])c2)S(=O)(=O)c2ccccc2)C1=O (centres undefined) | inactive: -6.16%
7 | CCNC(=O)CN(c1ccc(F)cc1)S(=O)(=O)c1ccc2c(c1)OCCO2 | inactive: -17.1%
8 | COc1ccc(NC(=O)[C@@H]2CCCN2S(=O)(=O)c2ccccc2F)cc1S(=O)(=O)N1CCCCC1 | inactive: -3.87%
9 | CON1C(=O)C(=O)N(OC)C(C)(C)C1(C)C | inactive: -26.1%
10 | OC1CCCN(Cc2cn(Cc3ccccc3)nc2-c2cc3ccccc3o2)C1 (centres undefined) | inactive: 0.887%
11 | O=C(Nc1ccc([N+](=O)[O-])cn1)c1cc(-c2cccc(Cl)c2)nc2ccccc12 | inactive: 8.89%
12 | CS(=O)(=O)N1CCCC(C(=O)Nc2ccc3c(c2)OCCO3)C1 (centres undefined) | inactive: 2.11%
13 | COc1cccc(OCCNC(=O)c2cccc(OC)c2)c1 | inactive: 15.5%
14 | NC(=O)c1ccc(NCC2COc3ccccc3O2)c([N+](=O)[O-])c1 (centres undefined) | inactive: 1.46%
15 | Cc1cccc(NC(=S)NC(=O)/C=C/c2ccco2)c1 | inactive: 14.4%
16 | CCn1cc(C(=O)NCCCN2CCCCCC2)c(=O)c2cc(S(=O)(=O)N3CCc4ccccc4C3)ccc21 | inactive: 9.67%
17 | COc1ccc(S(=O)(=O)NCC(=O)N(CC(=O)NCc2ccco2)Cc2ccccc2)cc1 | inactive: 13.2%
18 | Cc1ccc(-n2sc3ccccc3c2=O)cc1 | inactive: -91.1%
19 | COc1ccc(OC)c2c(C)cc(C)nc12 | inactive: 4.33%
20 | O=C(CSc1nnc(COc2cccc3ccccc23)o1)N1c2ccccc2CCc2ccccc21 | inactive: 18.5%
21 | O=C(CSc1ncnc2ccccc12)NCc1ccco1 | inactive: 8.17%
22 | Cc1ccc(C)c2c1cc(C)c1nnc(SCC(=O)Nc3cccc(C(=O)O)c3)n12 | inactive: 13.3%
23 | Cn1nc(C(=O)OCC(=O)c2ccc(Br)cc2)c2ccccc2c1=O | inactive: 24.3%
24 | CCc1nc2ccc(C(=O)NCCN3CCNC3=O)cn2c1N(C)CCC(C)C | inactive: 3.55%
25 | COP(=O)(OC)C(Nc1ccc(C)cc1)c1ccc(Br)cc1 (centres undefined) | inactive: 15.1%
26 | O=C1c2cccc3c(N4CCCCC4)ccc(c23)C(=O)N1c1ccccn1 | inactive: 19.7%
27 | CN(CC(=O)Nc1ccc(F)c(F)c1)S(=O)(=O)c1cccs1 | inactive: 26.5%

Row | Structure (SMILES) | growth rescue (activation)
28 | O=C(CSc1nnc2ccccn12)NNC(=O)c1ccc(Cl)cc1 | inactive: 6.19%
29 | CC1OC(Nc2ccc(N=Nc3ccccc3)cc2)C(O)C(O)C1O (centres undefined) | inactive: 5.63%
30 | COc1ccc(CCNC(=O)CSc2nc3scc(-c4ccccc4)c3c(=O)[nH]2)cc1 | inactive: 14.9%
31 | CCOC(=O)C1CCN(C(=O)C(C)Sc2nnc3ccccn23)CC1 (centres undefined) | inactive: -11.4%
32 | CCSc1ncc(Cl)c(C(=O)Nc2nc3ccc(Cl)cc3s2)n1 | inactive: -5.59%
33 | Cc1ccc(N(CC(=O)NCC2CCCO2)C(=O)CCC(=O)Nc2nccs2)cc1C (centres undefined) | inactive: 7.57%
34 | Clc1ccc(SCCCCn2ccnc2)cc1 | inactive: -5.78%
35 | CCNNC(=O)C(O)(Cc1ccccc1)Cc1ccccc1 | inactive: 5.02%
36 | Cc1ccc(-n2c(=O)c3c(cnn3C)n(Cc3ccc(Cl)cc3)c2=O)cc1 | inactive: 17%
37 | COC(=O)Cc1ccc2sc(-c3ccccc3)nc2c1 | inactive: 19.8%
38 | Cc1cc(C(=O)NCC(=O)OCC(=O)N(C)C2CCCCC2)ccc1[N+](=O)[O-] | inactive: -1.76%
39 | O=C(NCc1ccccc1)c1cc(C2CCCCN2S(=O)(=O)c2ccccc2)on1 (centres undefined) | inactive: 16.2%
40 | O=C(CN1CCN(Cc2ccc(Cl)cc2)CC1)N/N=C/C=C/c1ccccc1[N+](=O)[O-] | inactive: 15.9%
41 | CCc1ccc(/C=C2\SC(N3CCOCC3)=NC2=O)cc1 | inactive: 21.8%
42 | O=C(NCc1ccccc1)C(c1ccc(F)cc1)N(Cc1cccs1)C(=O)c1cnccn1 (centres undefined) | inactive: 4.69%
43 | Cc1cccn2c(=O)c(C=O)c(N3CC(C)OC(C)C3)nc12 (centres undefined) | inactive: -2.22%
44 | CN(/N=C/c1cccnc1)C1=NS(=O)(=O)c2ccccc21 | inactive: 1.76%
45 | O=C(CCCc1nc(-c2ccccc2)no1)NC1CCCC1 | inactive: 8.89%
46 | O=C(O)Cc1sc(-c2ccc(C(=O)O)cc2)nc1-c1ccccc1 | inactive: -8.04%
47 | CCOP(=O)(OCC)c1nc(-c2ccccc2)oc1NCc1ccccc1 | inactive: 2.79%
48 | O=C(NC1CCCC1)C(c1cccnc1)N(Cc1ccccc1)C(=O)c1csnn1 (centres undefined) | inactive: 4.11%
49 | CCOc1ccc(S(=O)(=O)/N=C(/Nc2ccc(C(C)=O)cc2)c2ccccc2)cc1 | inactive: -2.92%
50 | COc1cccc(/C=N/Nc2nnc(C)n2N)c1O | inactive: 14.3%
51 | N#Cc1ccccc1OCC(=O)NC1CCCCC1 | inactive: 2.54%
52 | COc1ccc(N(CC(=O)NC2CCCC2)C(=O)CCC(=O)Nc2nc(C)cs2)cc1OC | inactive: 1.23%
53 | CCCCc1c(C)nc2ccccc2c1SCCC#N | inactive: -6.66%
54 | Cc1cc(S(=O)(=O)Nc2nc(CN3CCOCC3)nc3sc4c(c23)CCC4)ccc1F | inactive: -4.51%

From PubChem BioAssay AID1347073 (National Center for Advancing Translational Sciences (NCATS), 2019)
